Assay results from the supplement of paper PMC8748497.
This is one part of the list.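 Rule for the calls: active = GRHL reporter fold change of at least 2 over DMSO at 10 µM; inactive = below 2-fold.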 Single values are uncertain, as repeats are few or missing.

What follows are compounds tested on HEK293 GRHL-luciferase reporter (assay: GRHL luciferase reporter activity, fold change over DMSO control; higher = stronger GRHL reporter activation). Details: 10 µM; 24 h.
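Note: stable HEK293 line carrying repeated GRHL consensus sites upstream of a minimal promoter driving luciferase, luminescence read 24 h post-treatment, normalized to 0.5% DMSO vehicle wells.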

| Compound | GRHL luciferase reporter activity |
| --- | --- |
| CCN(CC)CCNC(=O)c1cc(Cl)c(N)cc1OC | inactive: 0.871 |
| O=C1C(=O)c2ccccc2C(O)=C1C1CCC(c2ccc(Cl)cc2)CC1 (centres undefined) | inactive: 1.11 |
| CC1(C)CC2C1CCC1(C)OC1CCC2(C)O (centres undefined) | inactive: 1.11 |
| CC(C)[N+](C)(CCOC(=O)C1c2ccccc2Oc2ccccc21)C(C)C | inactive: 1.02 |
| O=C(/C=C/C(=O)Oc1ccccc1C(=O)O)Oc1ccccc1C(=O)O | inactive: 1.02 |
| CC1(O)CCOC(=O)C1 (centres undefined) | inactive: 1.19 |
| CCCCN(CCCC)CCCOC(=O)c1ccc(N)cc1 | inactive: 0.846 |
| C[C@H](CCC(=O)O)[C@H]1CC[C@H]2[C@@H]3CC[C@@H]4C[C@H](O)CC[C@]4(C)[C@H]3C[C@H](O)[C@]12C | inactive: 0.853 |
| Cn1c(=O)c2[nH]c(Br)nc2n(C)c1=O | inactive: 0.971 |
| Cc1onc(-c2c(Cl)cccc2Cl)c1C(=O)N[C@@H]1C(=O)N2[C@@H]1SC(C)(C)[C@@H]2C(=O)O | inactive: 0.996 |
| CCCCCc1c2c(cc(O)c1C(=O)O)OC(=O)c1c(cc(OC)cc1C(=O)CCCC)O2 | inactive: 0.963 |
| O=C(O)c1cc(-c2ccc(F)cc2F)ccc1O | inactive: 1.02 |
| CCCCNc1ccc(C(=O)OCCN(C)C)cc1 | inactive: 1.25 |
| COc1ccc(CN(CCN(C)C)c2ccccn2)cc1 | inactive: 0.846 |
| CC(C)CC(NC(=O)CN)C(=O)NC(Cc1ccccc1)C(=O)O (centres undefined) | inactive: 1.11 |
| NCCc1c[nH]cn1 | inactive: 1.02 |
| CC1CC(OC(=O)c2ccccc2O)CC(C)(C)C1 (centres undefined) | inactive: 0.723 |
| C[N+](C)(C)CC(=O)O | inactive: 0.933 |
| CCCCC(CC)COc1ccc(-c2nc(-c3ccc(OC)cc3)nc(-c3ccc(OCC(CC)CCCC)cc3O)n2)c(O)c1 (centres undefined) | inactive: 0.935 |
| O=C1c2c(O)cccc2C([C@@H]2O[C@H](CO)[C@@H](O)[C@H](O)[C@H]2O)c2cc(CO)cc(O)c21 (some centres undefined) | inactive: 0.68 |

| Compound | GRHL luciferase reporter activity |
| --- | --- |
| COc1cc(/C=C/C(=O)O)cc(OC)c1OC | inactive: 1.2 |
| CCCCCC1C(=O)CCC1CC(=O)OC (centres undefined) | inactive: 0.975 |
| COc1cc(N)cn[n+]1-c1ccccc1 | inactive: 1.04 |
| Oc1cc(O)c2c(c1)O[C@H](c1ccc(O)c(O)c1)[C@@H](O)C2 [CIANIDANOL [+-catechin]] | inactive: 0.826 |
| CN1C(C)(C)CCCC1(C)C | inactive: 0.918 |
| C#CCN(C)Cc1ccccc1 | inactive: 0.884 |
| C/C(=C\C(=O)OCCCCCCCCC(=O)O)C[C@@H]1OC[C@H](C[C@@H]2O[C@H]2[C@@H](C)[C@H](C)O)[C@@H](O)[C@H]1O | inactive: 0.934 |
| Cc1ccc(S(=O)(=O)NCl)cc1 | inactive: 1.23 |
| CC(=O)OCC(=O)[C@@]1(O)CC[C@H]2[C@@H]3CC[C@@H]4C[C@H](O)CC[C@]4(C)[C@H]3C(=O)C[C@@]21C | inactive: 0.75 |
| C=CC(C1=CC(=O)C(OC)=CC1=O)c1ccc(O)cc1 (centres undefined) | active: 18.5 |
| C=C(NC(=O)C(=C)NC(=O)c1csc(C2=N[C@@H]3c4csc(n4)[C@H]4NC(=O)c5csc(n5)[C@H]([C@](C)(O)[C@@H](C)O)NC(=O)[C@H]5CSC(=N5)/C(=C/C)NC(=O)[C@H]([C@@H](C)O)NC(=O)c5csc(n5)[C@]3(CC2)NC(=O)[C@H](C)NC(=O)C(=C)NC(=O)[C@H](C)NC(=O)[C@H]([C@@H](C)CC)N[C@@H]2C=Cc3c([C@H](C)O)cc(nc3[C@H]2O)C(=O)O[C@@H]4C)n1)C(N)=O | active: 5.68 |
| C/C=C/c1ccc(OC)cc1 | inactive: 0.86 |
| NS(=O)(=O)c1cc2c(cc1C(F)(F)F)NC(Cc1ccccc1)NS2(=O)=O (centres undefined) | inactive: 0.901 |
| C[C@H]1O[C@@H](O[C@H]2[C@@H](O)C[C@H](O[C@H]3[C@@H](O)C[C@H](O[C@H]4CC[C@@]5(C)[C@H](CC[C@@H]6[C@@H]5C[C@@H](O)[C@]5(C)[C@@H](C7=CC(=O)OC7)CC[C@]65O)C4)O[C@@H]3C)O[C@@H]2C)C[C@H](O)[C@@H]1O | inactive: -0.0152 |
| COC(=O)C[C@H]1C(C)(C)C(=O)[C@@H]2CC3C4=CC(=O)O[C@@H](c5ccoc5)[C@]4(C)CC[C@@H]3[C@@]1(C)C2=O (some centres undefined) | inactive: 0.929 |
| Clc1ccccc1CN1CCc2sccc2C1 | inactive: 1.14 |
| CCOC(=O)c1c(C)cc(O)c(C=O)c1O | active: 2.18 |
| CC(=O)N[C@@H](CCC(=O)O)C(=O)O | inactive: 1.11 |
| CCOC(=O)CCC(=O)O[C@H]1[C@H](O[C@@H]2[C@@H](C)[C@H](O[C@H]3C[C@@](C)(OC)[C@@H](O)[C@H](C)O3)[C@@H](C)C(=O)O[C@H](CC)[C@@](C)(O)[C@H](O)[C@@H](C)C(=O)[C@H](C)C[C@@]2(C)O)O[C@H](C)C[C@@H]1N(C)C | inactive: 1.07 |
